Among the data in PubChem BioAssay AID1745853 (National Center for Advancing Translational Sciences (NCATS), 2022) are activity change, negative = inhibition values, retold here.

What all share (assay): Primary Screen for Target Class Profiling of Small Molecule Inhibitors of Methyltransferases
The target of experiment [1] is Glycine N-methyltransferase (Homo sapiens) (UniProt Q14749). The settings on record: purified enzyme, MTase-Glo SAH luminescence; measured here: GNMT inhibition; at 40 µM; stronger effect = lower value. In a few lines:
(§1)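 Each enzyme was assayed with SAM and its substrate. SAH formation detected by MTase-Glo luminescence; single-point 40 uM screen[…].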

In experiment [2] the target is Guanidinoacetate N-methyltransferase (Homo sapiens) (UniProt Q14353). To be noted: purified enzyme, MTase-Glo SAH luminescence; measured here: GAMT inhibition; at 40 µM; stronger effect = lower value. Put shortly: as §1
Experiment [3] has as its target Histamine N-methyltransferase (Homo sapiens) (UniProt P50135). The settings on record: purified enzyme, MTase-Glo SAH luminescence; measured here: HNMT inhibition; at 40 µM; stronger effect = lower value. Put shortly:
as §1

For experiment [4], the target named is Nicotinamide N-methyltransferase (Homo sapiens) (UniProt P40261). The settings on record: purified enzyme, MTase-Glo SAH luminescence; measured here: NNMT inhibition; at 40 µM; stronger effect = lower value. Put shortly: as §1
In experiment [5] the target is Phenylethanolamine N-methyltransferase (Homo sapiens) (UniProt P11086). The settings on record: purified enzyme, MTase-Glo SAH luminescence; measured here: PNMT inhibition; at 40 µM; stronger effect = lower value. Put shortly: as §1

The list shows a part of the results. Shown are side measurements of this screen, not its main read-out; they come without a call.
On the % scale 0 is the no-effect control and ±100 the full control effect.

Take `CCc1cccc(N2C(=O)c3ccccc3CC2(C)C(=O)NCc2ccccc2)c1` (stereo not given): the activity change, negative = inhibition was 3.55% in experiment [1]; 0% in experiment [2]; 6.39% in experiment [3]; -2.29% in experiment [4]; 3.5% in experiment [5].

`COC(=O)CCSCc1ccc(-c2onc(C)c2NC(=O)OC(C)c2ccccc2Cl)cc1` (stereo not given): the activity change, negative = inhibition in experiment [1] is -2.2%; in experiment [2], -13.8%; in experiment [3] it was 12.5%; in experiment [4] it was -29.6%; in experiment [5], -13.5%.

Regarding `CS(=O)(=O)NCC1CCC(Nc2nc3c(s2)CCSc2ccccc2-3)CC1` (stereo not given), the activity change, negative = inhibition was -9.28% in experiment [1]; 1.19% in experiment [2]; 7.42% in experiment [3]; -22.9% in experiment [4]; -1.5% in experiment [5].

Turning to `CC1CCC(NC(=O)C2(C)Cn3c(cc4occc43)C(=O)N2Cc2cccc(F)c2)CC1` (stereo not given), the activity change, negative = inhibition was -1.84% in experiment [1]; 0.167% in experiment [2]; 0.694% in experiment [3]; -4.58% in experiment [4]; -0.138% in experiment [5].

Take `CC(C)/C=C1\NC(=O)C(C(C)C)n2c1nc1c(c2=O)C=CC=CO1` (stereo not given): the activity change, negative = inhibition in experiment [1] was -3.29%; in experiment [2], -8.18%; in experiment [3], 5.92%; in experiment [4] it was -20%; in experiment [5] it was -11.7%.

On to `N=c1c[n+](N2CCOCC2)[n-]o1`, for which the activity change, negative = inhibition in experiment [1] is 6.57%; in experiment [2], 19%; in experiment [3], 15.5%; in experiment [4], -4.93%; in experiment [5] it was 7.88%.

Consider `CCCCc1nc2c3ccccc3n(CC(=O)N3CCN(c4ccccc4F)CC3)c(=O)n2n1`, for which the activity change, negative = inhibition was found to be 15.5% in experiment [1]; 0% in experiment [2]; 12.3% in experiment [3]; 7.64% in experiment [4]; 7.92% in experiment [5].

For the compound `CCN(CC)CCCN1C(=O)c2cc3occc3n2CC1(C)C(=O)NC1CCC(C)CC1` (stereo not given), the activity change, negative = inhibition in experiment [1] is -6.46%; in experiment [2], 7.1%; in experiment [3], -4.72%; in experiment [4] it was -0.741%; in experiment [5], -0.944%.

On to `Cc1ccsc1CCNC(=O)CCc1nnc2ccc(NCc3ccccc3)nn12`, for which the activity change, negative = inhibition is -3.4% in experiment [1]; 5.29% in experiment [2]; -0.931% in experiment [3]; -7.07% in experiment [4]; 3.12% in experiment [5].

As to `Cc1nc(C)c(C(=O)N2CCC(c3nnc(Cn4ccnc4)n3C)CC2)o1`, the activity change, negative = inhibition was -3.98% in experiment [1]; -6.61% in experiment [2]; -3.4% in experiment [3]; -2.98% in experiment [4]; -5.54% in experiment [5].

As for `Cc1ccc(CNC(=O)Cn2nc3n(C(C)C)c(=O)c4ccc(C(=O)NC(C)C)cc4n3c2=O)cc1`, the activity change, negative = inhibition in experiment [1] is 1.59%; in experiment [2] it was 0%; in experiment [3] it was 3.13%; in experiment [4], -0.825%; in experiment [5], 3.29%.

Take `Cc1cc(C)c(S(=O)(=O)NCCc2nc(-c3ccc(F)cc3)n[nH]2)cc1C`: the activity change, negative = inhibition is -2.06% in experiment [1]; 1.89% in experiment [2]; -3.95% in experiment [3]; -4.09% in experiment [4]; -6.3% in experiment [5].

Take `O=C(Cn1c(=O)c2ccc(Cl)cc2n2nncc12)Nc1ccc(Oc2ccccc2)cc1`: the activity change, negative = inhibition in experiment [1] is -1.48%; in experiment [2] it was 4.5%; in experiment [3] it was 1.48%; in experiment [4], -4.13%; in experiment [5] it was -3.87%.

Take `CCCn1c(=O)c2ccc(Cl)cc2n2c(=O)n(Cc3cc(C)ccc3C)nc12`: the activity change, negative = inhibition in experiment [1] is 3.71%; in experiment [2] it was 0%; in experiment [3], 8.89%; in experiment [4], 4.03%; in experiment [5], 3.02%.

With `COc1ccc(-c2cnc3[nH]cc(CC(=O)Nc4ccc(C(F)(F)F)cc4)c3c2)cc1`, the activity change, negative = inhibition in experiment [1] was -10.1%; in experiment [2] it was -12.1%; in experiment [3] it was -7.64%; in experiment [4], -19%; in experiment [5], -18.9%.

As for `CC1CCC(NC(=O)C2(C)Cn3c(cc4sccc43)C(=O)N2Cc2cccnc2)CC1` (stereo not given), the activity change, negative = inhibition in experiment [1] is 1.88%; in experiment [2] it was 0%; in experiment [3] it was 3.41%; in experiment [4], 4.56%; in experiment [5], 0.746%.

For `O=C(NCC1(O)CCCNCC1)c1cccc(-c2ccc(F)cc2)c1` (stereo not given), the activity change, negative = inhibition in experiment [1] was -6.73%; in experiment [2], -4.54%; in experiment [3], -5.74%; in experiment [4] it was -5.46%; in experiment [5], -0.636%.

Consider `CCn1ccnc1CN1CCCC(CO)(Cc2cccc(Cl)c2)C1` (stereo not given), for which the activity change, negative = inhibition in experiment [1] is -3.26%; in experiment [2] it was 2.47%; in experiment [3], -21.3%; in experiment [4], -6.19%; in experiment [5] it was -1.33%.

On to `Cc1ccc(C)c(N2CCN(S(=O)(=O)c3cc4[nH]c(=O)[nH]c4cc3C)CC2)c1`, for which the activity change, negative = inhibition in experiment [1] is 2.8%; in experiment [2], 0%; in experiment [3] it was -3.71%; in experiment [4], -6.84%; in experiment [5], -0.637%.

As to `COCCNC(=O)c1cc2n(n1)CC(C)(C(=O)NC1CCCC1)N(C)C2=O` (stereo not given), the activity change, negative = inhibition was 2.93% in experiment [1]; 5.27% in experiment [2]; -2.46% in experiment [3]; 5.82% in experiment [4]; -0.381% in experiment [5].

As for `CCCC1CN(Cc2ccc(OC)cc2)[S+](=O)([O-])c2cnccc2O1` (stereo not given), the activity change, negative = inhibition is -7.71% in experiment [1]; -8% in experiment [2]; -2.84% in experiment [3]; -29.7% in experiment [4]; -10% in experiment [5].

Take `COC(=O)[C@@H]1Cc2ncn(Cc3ccc(OC)cc3)c2CN1S(=O)(=O)c1ccccc1`: the activity change, negative = inhibition in experiment [1] is -9.47%; in experiment [2] it was -0.387%; in experiment [3], 1.05%; in experiment [4], -10.6%; in experiment [5], -3.94%.

With `CCCCN1C(=O)c2cc3ccccc3n2CC1(C)C(=O)NC1CCCCC1` (stereo not given), the activity change, negative = inhibition in experiment [1] worked out at 0.101%; in experiment [2], 3.13%; in experiment [3], 7.84%; in experiment [4], 6.72%; in experiment [5] it was 3.09%.

In the case of `O=C1CCN(C(=O)Cc2ccccc2)CCCOCCN1`, the activity change, negative = inhibition in experiment [1] is -6.75%; in experiment [2], -10.9%; in experiment [3], -17.9%; in experiment [4], -14.1%; in experiment [5] it was -9.45%.

As for `Cc1cccc(NC(=O)Cn2nc3n(C)c(=O)c4ccc(C(=O)NC5CCCC5)cc4n3c2=O)c1`, the activity change, negative = inhibition in experiment [1] was 0.953%; in experiment [2] it was -0.237%; in experiment [3] it was -0.971%; in experiment [4] it was 0.481%; in experiment [5], -5.23%.

In the case of `CNC(=O)c1noc([C@@H]2CC(F)(F)CN2Cc2cccn2C)n1`, the activity change, negative = inhibition in experiment [1] was -9.25%; in experiment [2] it was -6.16%; in experiment [3], -2.49%; in experiment [4] it was -2.41%; in experiment [5], -8.81%.

`CCC[C@@H]1CN(C(=O)c2cc(-c3cccs3)n(C)n2)C[C@H]1N(C)C`: the activity change, negative = inhibition in experiment [1] is -6.97%; in experiment [2], -2.84%; in experiment [3], -1.89%; in experiment [4], -6.23%; in experiment [5], -1.73%.

With `COCCCN1C(=O)c2cc3ccccc3n2CC1(C)C(=O)NC1CCCCC1` (stereo not given), the activity change, negative = inhibition in experiment [1] was -4.65%; in experiment [2], 4.23%; in experiment [3], -0.905%; in experiment [4], 2.56%; in experiment [5], -0.288%.

As to `CCCN1C(=O)c2c(C(=O)NCc3cccc(Cl)c3)ncn2CC1(C)C(=O)NC1CCCC1` (stereo not given), the activity change, negative = inhibition was -0.967% in experiment [1]; 0% in experiment [2]; 4.08% in experiment [3]; 2.23% in experiment [4]; 1.75% in experiment [5].

`CC(C(=O)O)C1CCC2(C)C3C(=O)C=C4C(CCC(=O)C4(C)C)C3(C)CCC12C` (stereo not given): the activity change, negative = inhibition in experiment [1] was 0.288%; in experiment [2], 1.18%; in experiment [3], 8.14%; in experiment [4] it was -13.7%; in experiment [5] it was 5.37%.

With `CCCn1c(=O)c2ccc(C(=O)NC3CCCC3)cc2n2c(=O)n(CC(=O)c3ccc(OC)cc3)nc12`, the activity change, negative = inhibition is 0.7% in experiment [1]; -2.08% in experiment [2]; 2.19% in experiment [3]; -3.68% in experiment [4]; -3.62% in experiment [5].

Turning to `CN(C)c1ccc(CN2C(=O)c3cc(-c4ccccc4)nn3CC2(C)C(=O)NCc2ccccc2)cc1` (stereo not given), the activity change, negative = inhibition in experiment [1] is -4.46%; in experiment [2] it was 1.31%; in experiment [3] it was -3.31%; in experiment [4] it was -10.3%; in experiment [5], -9.52%.

`CC1CCC(NC(=O)C2(C)Cn3c(ccc3-c3ccccc3)C(=O)N2CC(C)c2ccccc2)CC1` (stereo not given): the activity change, negative = inhibition is 3.14% in experiment [1]; 1.74% in experiment [2]; -1.87% in experiment [3]; -3.84% in experiment [4]; -1.42% in experiment [5].

For `COc1ccccc1CNC(=O)C1(C)Cn2nc(-c3ccccc3)cc2C(=O)N1c1ccc(Cl)cc1C` (stereo not given), the activity change, negative = inhibition in experiment [1] was -0.699%; in experiment [2], 5.24%; in experiment [3], 1.19%; in experiment [4], -6.06%; in experiment [5], -4.78%.

As to `CC(=O)[C@]1(O)Cc2c(O)c3c(c(O)c2[C@@H](O[C@H]2C[C@H](N)[C@H](O)[C@H](C)O2)C1)C(=O)c1ccccc1C3=O`, the activity change, negative = inhibition in experiment [1] was -16.7%; in experiment [2] it was 6.02%; in experiment [3], -4.2%; in experiment [4], -14.3%; in experiment [5], -3.82%.

Regarding `CC(O)/C=C/C1(O)C(C)C(O)C(O[C@@H]2O[C@H](CO)[C@@H](O)[C@H](O)[C@H]2O)CC1(C)C` (stereo not given in full), the activity change, negative = inhibition was -1.29% in experiment [1]; -1.6% in experiment [2]; 2.49% in experiment [3]; -12.6% in experiment [4]; -7.96% in experiment [5].

For the compound `COc1ccc(CN2C(=O)c3cc4sccc4n3CC2(C)C(=O)NC2CCC(C)CC2)cc1OC` (stereo not given), the activity change, negative = inhibition is -3.71% in experiment [1]; 4.87% in experiment [2]; -4.17% in experiment [3]; -72.7% in experiment [4]; -0.916% in experiment [5].

As to `COc1ccc(N2C(=O)c3cc4ccccc4n3CC2(C)C(=O)NCCC(C)C)cc1OC` (stereo not given), the activity change, negative = inhibition in experiment [1] is 7.51%; in experiment [2] it was 0.906%; in experiment [3], 10.8%; in experiment [4], 1.04%; in experiment [5] it was 6.1%.
